Source: PubChem BioAssay (NCATS)
The shares of active, inactive and inconclusive entries below differ from those in the screen. Potencies of inconclusive entries are left out as doubtful fits. Active and inactive are the calls of the source. The call rests on the fitted dose curve; in most records, active means well fitted inhibition curve with a large enough effect; inconclusive means small, poorly fitted or top-dose-only effect; inactive means flat fitted curve, though single readings scatter.

Assays:
[1] = qHTS for Inhibitors of Plasmodium falciparum (7G8) proliferation (AID 504316); further: nearly all actives have a fitted effect of over 65% in size; details: P. falciparum 7G8 in erythrocytes, SYBR Green DNA, 72 h; activity change, negative = inhibition: at 6.7 µM (top of the series)
Summary of the method: (§1)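 Erythrocytes infected with P. falciparum line (0.3% parasitemia, 2.5% hematocrit final) incubated with compounds 72 h at 37 °C, 5% CO2; SYBR Green lysis buffer added, fluorescence read next day. Normalized to 0.29 uM artemisinin and DMSO.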

[2] = qHTS for Inhibitors of Plasmodium falciparum (HB3) proliferation (AID 504318); further: nearly all actives have a fitted effect of over 60% in size; details: P. falciparum HB3 in erythrocytes, SYBR Green DNA, 72 h; activity change, negative = inhibition: at 7.21 µM (top of the series)
Summary of the method: as §1
Potency means the concentration at half of the fitted maximal effect; tags describe the fitted curve by direction and shape.

SMILES | Potency [1] | Potency [2]
CC(CCN1CCCc2nc(C)c(C)cc21)=NOC[C@@H](C)[C@H](OCc1ccccc1)C(C)C | inconclusive [inhibitor, single point] | inconclusive [inhibitor, partial curve]
CC12C=C(C=Cc3ccc(Br)cc3)C(C)(C1)[C@H](c1ccc(Br)cc1)CC2=O (stereo partly specified) | active: 1.69 µM | active: 1.69 µM
COC/C=C/C1=CC2=CC(=O)C(C)(OC(=O)c3cnc4ccccc4n3)C(=O)C2=CN1c1ccc(OC)cc1 (stereo unspecified) | inconclusive [inhibitor, partial curve] | inconclusive [inhibitor, single point]
COC[C@@H](OC(C)=O)[C@H]1OCc2ccccc2[C@@H]1C=Cc1ccccc1 | inconclusive [inhibitor, single point] | inactive
CCOC(=O)NN=C1C[C@@H](O)[C@@H](O)[C@@H]2[C@H]3C(=O)N(Cc4ccc5c(c4)OCO5)C(=O)[C@@H]3CC[C@H]12 | – | inactive
COC(=O)CCC(=O)OC1(C)C(=O)C=C2C=C(C3CC3)N(CCCCO)C=C2C1=O (stereo unspecified) | inactive | –
CCN1C(=O)N[C@@H](CCc2ccccc2)[C@H](C(C)=O)[C@H]1C | – | inactive
C[C@@H]1CC[C@H]2C(=O)N3[C@@H](CC[C@@H](C)[C@@H]3c3ccc(Br)cc3)C(=O)N2[C@@H]1c1ccc(Br)cc1 | inconclusive [inhibitor, single point] | inconclusive [inhibitor, partial curve]
C[C@H]1COC(=O)[C@H](Cc2ccccc2)NC(=O)[C@@H](C)COC(=O)[C@H](Cc2ccccc2)NC1=O | inactive | inconclusive [inhibitor]
O=C(NN=C1C[C@@H](O)[C@H](O)[C@H]2[C@@H]3C(=O)N(c4cccc(Oc5ccccc5)c4)C(=O)[C@@H]3CC[C@H]12)OCc1ccccc1 | – | inactive
CC1(OC(=O)c2ccco2)C(=O)C=C2C=C(c3ccsc3)OC=C2C1=O (stereo unspecified) | – | inactive
COC(=O)[C@H](Cc1ccccc1)NC(=O)O[C@H]1C(=O)c2ccc(OC)cc2O[C@@H]1c1ccc2c(c1)OCO2 | inactive | –
CCCCc1nc2c(c3c1C[C@H](C)OC3)CN(C(=O)c1cccnc1)CC2 | inconclusive [inhibitor, partial curve] | –
C=CCC(Nc1ccc(OC)cc1)(C(=O)OCC)c1ccccc1 (stereo unspecified) | inconclusive [activator, full curve, poor fit] | inactive
COC(=O)N[C@H](CC(C)=O)c1ccccc1 | inactive | –
C=CCC(O)(C#Cc1ccccc1)c1ccccc1 (stereo unspecified) | – | inactive
CCN(CC)CCCN=C1NC(c2cccc(F)c2)C(C(=O)OC)=C(C)N1Cc1ccccc1 (stereo unspecified) | inconclusive [inhibitor, single point] | inconclusive [inhibitor, single point]
C=CCOC(=O)N[C@@H](CCc1ccccc1)C(C(C)=O)C(C)=O | inactive | –
COC/C=C/C1=CC2=CC(=O)C(C)(OC(=O)c3cnc4ccccc4n3)C(=O)C2=CN1C1CCCC1 (stereo unspecified) | – | inactive
CCOC(=O)CNC(=O)O[C@@H]1C(=O)c2cc(OC)ccc2O[C@H]1c1cccc(OC)c1 | inactive | –

SMILES | Potency [1] | Potency [2]
CC1(OC(=O)CCc2ccccc2)C(=O)C=C2C=C(c3ccc(C#N)cc3)N(CCc3ccccn3)C=C2C1=O (stereo unspecified) | inactive | –
O=C1[C@H]2[C@@H]3[C@@H](O)[C@H](O)CC(=NOCc4ccccc4)[C@H]3CC[C@H]2C(=O)N1Cc1ccc2c(c1)OCO2 | – | inconclusive [inhibitor, single point]
Cc1ccc2[nH]c3nc(CCCn4ccnc4-c4ccccc4)nnc3c2c1 | inconclusive [inhibitor, single point] | –
CCN1C(=O)N[C@@H](c2ccc(Br)cc2)C(C(C)=O)=C1C | – | inactive
COC(=O)C1=C(C(=O)OC)[C@@H]2N(C)c3ccc(OC)cc3[C@@]23C[C@@H](C(=O)OC)N(S(=O)(=O)c2ccc4c(c2)OCCN4C)C3=N1 | – | inconclusive [inhibitor, single point]
COc1ccc(COC(=O)NN=C2C[C@@H](O)[C@@H](O)[C@@H]3[C@H]4C(=O)N(C[C@@H]5CCCO5)C(=O)[C@@H]4CC[C@H]23)cc1 | – | inconclusive [inhibitor, partial curve, poor fit]
CC#CCN1C(=O)N[C@@H](c2ccccc2)C(C(=O)OC)=C1C | – | inactive
CCN1C(=NCC(C)C)N[C@@H](CCc2ccccc2)[C@H](C(=O)OC)[C@H]1C | – | inconclusive [activator, full curve, poor fit]
C=CCOC(=O)C1(C(NC(=O)OC)c2ccccc2)C(=O)Cc2ccccc21 (stereo unspecified) | – | inconclusive [inhibitor, partial curve, poor fit]
CC(CCN1CCCCc2nc(C)c(C)cc21)=NO[C@@H](C)CN1CCCCc2nc(C)c(C)cc21 | inactive | –
O=c1oc2ccccc2c2c1[C@H]1O[C@](c3ccsc3)(Cc3c1ccc1ccccc31)O2 | inactive | inconclusive [inhibitor, partial curve]
C#C[C@@H]1C=C[C@H](Oc2ccc(OC)cc2)[C@H](CO)O1 | – | inactive
COC(=O)[C@H](COC(C)(C)C)NC(=O)O[C@@H]1C(=O)c2ccc(OC)cc2O[C@H]1c1ccc2c(c1)OCO2 | – | inactive
COc1ccc(O[C@H]2C=C[C@@H](c3ccccc3)O[C@H]2COC(=O)NCc2cccc3ccccc23)cc1 | inconclusive [inhibitor, partial curve] | inconclusive [inhibitor, partial curve]
CCCCCCCC=CC1=CC2(C)CC1(C)C(CCCCCCC)CC2=O (stereo unspecified) | – | inactive
CC1(O)C(=O)C=C2C=C(c3ccc(C#N)cc3)OC=C2C1=O (stereo unspecified) | inactive | inactive
COC(=O)N1C2CC3(C)CC(=O)CC1(C)C3c1ccccc12 (stereo unspecified) | – | inactive
CC(=O)C1=C(C)N(CCC=Cc2ccccc2)C(=O)NC1c1ccccc1 (stereo unspecified) | inconclusive [inhibitor, partial curve] | –
COC(=O)CCC(=O)OC1(C)C(=O)C=C2C=C(C3CC3)N(c3ccccc3)C=C2C1=O (stereo unspecified) | inconclusive [inhibitor, partial curve, poor fit] | –
N#CCCN(CC#Cc1ccccc1)OCc1ccccc1 | inactive | –

SMILES | Potency [1] | Potency [2]
C=CCN1c2ccccc2[C@]23C[C@@H](C(=O)OC)N=C2NC(C(=O)OC)=C(C(=O)OC)[C@H]13 | – | inconclusive [activator, full curve, poor fit]
COC(=O)[C@@H](NC(=O)N1CCc2nc(-c3ccccc3)c3c(c2C1)CO[C@@H](C)C3)C(C)C | inconclusive [inhibitor, single point] | –
CCCCCCCC1=CC2=CC(=O)C(C)(O)C(=O)C2=CN1CCCC (stereo unspecified) | inactive | –
COC1=C[C@H](C(=O)NCc2ccccn2)[C@H](C)[C@@H](c2ccccc2)CC1=O | – | inconclusive [inhibitor, single point]
CCCCC1=CC2=CC(=O)C(C)(OC(=O)CC)C(=O)C2=CN1Cc1ccccc1 (stereo unspecified) | – | inactive
CC1(OC(=O)C2CCCC2)C(=O)C=C2C=C(c3ccsc3)N(CC3CC3)C=C2C1=O (stereo unspecified) | – | inconclusive [inhibitor, partial curve, poor fit]
COC(=O)c1c(C(=O)OC)c2c3ccccc3cc(C3CC3)n2c1C(=O)OC | – | inconclusive [inhibitor, partial curve, poor fit]
CCOC(=O)CN1C(=O)N[C@@H](c2cccc(F)c2)C(C(C)=O)=C1C | – | inactive
COc1ccc(COC(=O)NN=C2C[C@@H](O)[C@@H](O)[C@@H]3[C@H]4C(=O)N(C5CCCCC5)C(=O)[C@@H]4CC[C@@H]23)cc1 | – | inconclusive [inhibitor, partial curve]
O=C(OCC(F)(F)F)[C@H](O)[C@@H](O)C(=O)OCC(F)(F)F | – | inactive
CCN1C(=NCc2ccc(OC)cc2)N[C@@H](CCc2ccccc2)[C@H](C(=O)NCc2ccc(OC)cc2)[C@H]1C | – | inconclusive [inhibitor, single point]
CC(=O)C1=CN(CCC=Cc2ccccc2)C(=O)NC1c1ccccc1 (stereo unspecified) | – | inactive
COC(=O)C1=C(C(=O)OC)[C@@H]2N(C)c3ccccc3[C@@]23CCC(=O)N(Cc2ccco2)C3=N1 | – | inactive
COC(=O)C1C[C@@]23C(=NN=C(SC)C2N(C)c2ccc(OC)cc23)N1C(C)=O (stereo partly specified) | – | inactive
COC(=O)c1ccc(CN2C(=O)C3(CC(C)=C[C@@H](C)O3)c3c(Br)cccc32)cc1 (stereo partly specified) | – | inconclusive [inhibitor, single point]
COC(=O)C1=C(C(=O)OC)[C@@H]2N(C)c3ccccc3[C@@]23C[C@@H](C(=O)OC)N(C(=O)NCCBr)C3=N1 | – | inactive
C=C(C)CCN1C(=O)NC(c2ccccc2)C(C(C)=O)=C1C (stereo unspecified) | – | inactive
C#CCCCON=C1C[C@@H](O)[C@H](O)[C@H]2[C@@H]3C(=O)N(C4CCCCC4)C(=O)[C@@H]3CC[C@H]12 | – | inconclusive [inhibitor, partial curve, poor fit]
CC(C)CN1C=C2C(=O)C(C)(OC(=O)C3CCCC3)C(=O)C=C2C=C1c1ccsc1 (stereo unspecified) | – | inactive
C[C@@H]1CC[C@H]2C(=O)N(Cc3ccc(Cl)cc3)C[C@@H](O)CN2[C@@H]1c1cccc(Br)c1 | – | inconclusive [inhibitor, single point]
